Laboratory results published in the supplement of paper PMC12217912.
The list shows a part of the results. The full chains were built here from the parent and the listed change. Values near 0.05 are background.

B1: TEV protease; numbered along this chain (parent)
chain: MGESLFKGPRDYNPISSSICHLTNESDGHTTSLYGIGFGPFIITNKHLFRRNNGTLVVQSLHGVFKVKDTTTLQQHLVDGRDMIIIRMPKDFPPFPQKLKFREPQREERICLVTTNFQTKSMSSMVSDTSCTFPSGDGIFWKHWIQTKDGQCGSPLVSTRDGFIVGIHSASNFTNTNNYFTSVPKNFMELLTNQEAQQWVSGWRLNADSVLWGGHKVFMVKPEEPFQPVKEATQL

Variants of: B1
Assay: raw area under fraction-flipped curve 0-4 h after induction (AUC4h, not background-subtracted), DNA-recorder readout of cleavage of the substrate (dimensionless); higher = more cleavage of the substrate by the protease variant
Conditions: temperature: 34 °C; time window: 0-4 h after rhamnose induction
Protocol: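 In vivo DNA recorder in E. coli TOP10(DE3) ΔrhaA at 34 °C. Each TEVp single-site mutant (parent TEVp 0) is paired with a single-site variant of the 7-mer TEVs (canonical ENLYFQ|S). The substrate sits between flexible linkers in a Bxb1-sfGFP-TEVs-SsrA fusion, so cleavage stabilises Bxb1 and speeds flipping of a recombination array, read by NGS. The value is the raw area under the fraction-flipped curve over 0-4 h after rhamnose induction (AUC4h), with ≥20 reads per time point. It is not background-subtracted; inactive controls average about 0.047.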
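Further: Bxb1 expression induced with 0.2% (w/v) L-rhamnose at OD600 near 0.5, cultures sampled hourly, flipped fraction per protease–substrate barcode pair counted by paired-end Illumina sequencing.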

Variant | area with substrate ENLYCQS | area with substrate ENLYDQS | area with substrate ENLYEQS | area with substrate ENLYGQS | area with substrate ENLYHQS | area with substrate ENLYIQS | area with substrate ENLYKQS | area with substrate ENLYMQS | area with substrate ENLYNQS | area with substrate ENLYPQS | area with substrate ENLYRQS | area with substrate ENLYSQS | area with substrate ENLYWQS | area with substrate ENLYYQS | area with substrate ENLYLQS | area with substrate ENLYQQS | area with substrate ENLYVQS | area with substrate ENLYTQS
MGESLFKGPRDYNPISSSICHLTNESDGHTTSLYGIGFGPFIITNKHLFRRNNGTLVVQALHGVFKVKDTTTLQQHLVDGRDMIIIRMPKDFPPFPQKLKFREPQREERICLVTTNFQTKSMSSMVSDTSCTFPSGDGIFWKHWIQTKDGQCGSPLVSTRDGFIVGIHSASNFTNTNNYFTSVPKNFMELLTNQEAQQWVSGWRLNADSVLWGGHKVFMVKPEEPFQPVKEATQL [S60A] | 0.0623 | 0.0635 | 0.0591 | 0.0614 | 0.0558 | 0.137 | 0.0738 | 0.0809 | 0.0791 | 0.0808 | 0.0423 | 0.129 | 0.0715 | 0.057 |  |  |  | 
MGESLFKGPRDYNPISSSICHLTNESDGHTTSLYGIGFGPFIITNKHLFRRNNGTLVVQSQHGVFKVKDTTTLQQHLVDGRDMIIIRMPKDFPPFPQKLKFREPQREERICLVTTNFQTKSMSSMVSDTSCTFPSGDGIFWKHWIQTKDGQCGSPLVSTRDGFIVGIHSASNFTNTNNYFTSVPKNFMELLTNQEAQQWVSGWRLNADSVLWGGHKVFMVKPEEPFQPVKEATQL [L61Q] | 0.0808 | 0.0474 | 0.0743 |  |  | 0.113 | 0.0926 |  |  | 0.0697 | 0.0678 | 0.0689 | 0.076 | 0.0717 | 0.0868 | 0.0639 | 0.112 | 
MGESLFKGPRDYNPISSSICHLTNESDGHTTSLYGIGFGPFIITNKHLFRRNNGTLVVQSVHGVFKVKDTTTLQQHLVDGRDMIIIRMPKDFPPFPQKLKFREPQREERICLVTTNFQTKSMSSMVSDTSCTFPSGDGIFWKHWIQTKDGQCGSPLVSTRDGFIVGIHSASNFTNTNNYFTSVPKNFMELLTNQEAQQWVSGWRLNADSVLWGGHKVFMVKPEEPFQPVKEATQL [L61V] | 0.0681 | 0.0622 | 0.0654 |  | 0.0773 |  | 0.0684 | 0.0991 | 0.0684 | 0.0909 | 0.0563 |  | 0.0824 |  |  |  |  | 
MGESLFKGPRDYNPISSSICHLTNESDGHTTSLYGIGFGPFIITNKHLFRRNNGTLVVQSLHCVFKVKDTTTLQQHLVDGRDMIIIRMPKDFPPFPQKLKFREPQREERICLVTTNFQTKSMSSMVSDTSCTFPSGDGIFWKHWIQTKDGQCGSPLVSTRDGFIVGIHSASNFTNTNNYFTSVPKNFMELLTNQEAQQWVSGWRLNADSVLWGGHKVFMVKPEEPFQPVKEATQL [G63C] | 0.0811 | 0.0531 | 0.0649 | 0.059 | 0.0685 | 0.143 | 0.0688 | 0.0809 | 0.0647 | 0.0725 |  | 0.0638 | 0.077 | 0.0533 | 0.089 |  | 0.0988 | 0.0774
MGESLFKGPRDYNPISSSICHLTNESDGHTTSLYGIGFGPFIITNKHLFRRNNGTLVVQSLHGVFCVKDTTTLQQHLVDGRDMIIIRMPKDFPPFPQKLKFREPQREERICLVTTNFQTKSMSSMVSDTSCTFPSGDGIFWKHWIQTKDGQCGSPLVSTRDGFIVGIHSASNFTNTNNYFTSVPKNFMELLTNQEAQQWVSGWRLNADSVLWGGHKVFMVKPEEPFQPVKEATQL [K66C] | 0.103 | 0.102 | 0.0674 |  | 0.0707 | 0.145 |  |  | 0.0684 |  |  |  |  | 0.0594 |  | 0.0643 |  | 
MGESLFKGPRDYNPISSSICHLTNESDGHTTSLYGIGFGPFIITNKHLFRRNNGTLVVQSLHGVFKHKDTTTLQQHLVDGRDMIIIRMPKDFPPFPQKLKFREPQREERICLVTTNFQTKSMSSMVSDTSCTFPSGDGIFWKHWIQTKDGQCGSPLVSTRDGFIVGIHSASNFTNTNNYFTSVPKNFMELLTNQEAQQWVSGWRLNADSVLWGGHKVFMVKPEEPFQPVKEATQL [V67H] | 0.0898 | 0.0512 | 0.0203 | 0.0661 | 0.0458 |  | 0.0584 | 0.0762 |  | 0.0713 | 0.0568 |  |  | 0.0636 |  | 0.0696 | 0.118 | 
MGESLFKGPRDYNPISSSICHLTNESDGHTTSLYGIGFGPFIITNKHLFRRNNGTLVVQSLHGVFKVKDMTTLQQHLVDGRDMIIIRMPKDFPPFPQKLKFREPQREERICLVTTNFQTKSMSSMVSDTSCTFPSGDGIFWKHWIQTKDGQCGSPLVSTRDGFIVGIHSASNFTNTNNYFTSVPKNFMELLTNQEAQQWVSGWRLNADSVLWGGHKVFMVKPEEPFQPVKEATQL [T70M] | 0.0702 | 0.0708 | 0.0586 |  | 0.0619 | 0.127 |  |  | 0.0689 |  | 0.0615 |  | 0.0927 |  |  | 0.0658 | 0.103 | 
MGESLFKGPRDYNPISSSICHLTNESDGHTTSLYGIGFGPFIITNKHLFRRNNGTLVVQSLHGVFKVKDTYTLQQHLVDGRDMIIIRMPKDFPPFPQKLKFREPQREERICLVTTNFQTKSMSSMVSDTSCTFPSGDGIFWKHWIQTKDGQCGSPLVSTRDGFIVGIHSASNFTNTNNYFTSVPKNFMELLTNQEAQQWVSGWRLNADSVLWGGHKVFMVKPEEPFQPVKEATQL [T71Y] | 0.0351 | 0.0567 | 0.0684 |  | 0.061 |  | 0.0696 | 0.0737 | 0.0443 |  | 0.0712 |  | 0.0565 |  |  | 0.0578 | 0.0932 | 
MGESLFKGPRDYNPISSSICHLTNESDGHTTSLYGIGFGPFIITNKHLFRRNNGTLVVQSLHGVFKVKDTTTLQQPLVDGRDMIIIRMPKDFPPFPQKLKFREPQREERICLVTTNFQTKSMSSMVSDTSCTFPSGDGIFWKHWIQTKDGQCGSPLVSTRDGFIVGIHSASNFTNTNNYFTSVPKNFMELLTNQEAQQWVSGWRLNADSVLWGGHKVFMVKPEEPFQPVKEATQL [H76P] | 0.0373 | 0.0447 |  | 0.0575 | 0.0561 | 0.0527 | 0.0545 | 0.0556 | 0.0555 | 0.0582 | 0.0574 | 0.0606 |  | 0.0583 |  | 0.0592 |  | 0.0538
MGESLFKGPRDYNPISSSICHLTNESDGHTTSLYGIGFGPFIITNKHLFRRNNGTLVVQSLHGVFKVKDTTTLQQHLVDGRDMPIIRMPKDFPPFPQKLKFREPQREERICLVTTNFQTKSMSSMVSDTSCTFPSGDGIFWKHWIQTKDGQCGSPLVSTRDGFIVGIHSASNFTNTNNYFTSVPKNFMELLTNQEAQQWVSGWRLNADSVLWGGHKVFMVKPEEPFQPVKEATQL [I84P] | 0.0379 | 0.0505 |  |  |  |  |  | 0.0361 | 0.0369 |  |  |  |  |  |  | 0.0294 |  | 
